Data reported in ChEMBL document CHEMBL1201862, “PubChem BioAssay data set” (2004).

Each compound was assayed on NCI-H322M (assay: inhibition of tumour cell growth, NCI panel, 48 h).

Structure (SMILES) | GI50
NC(=O)c1ccc(C(=O)Nc2ccc([As](=O)(O)O)cc2)cc1 | inactive: > 100 µM
Cn1nc(S(N)(=O)=O)s/c1=N/S(=O)(=O)c1ccc(N)cc1 | inactive: > 100 µM
O=C1CC(O)(c2ccccc2)C(c2ccccc2)=C1c1ccccc1 (stereo not drawn) | inactive: 81.8 µM
Cc1ccc(S(=O)(=O)Nc2ccccc2C(=O)c2ccc(C)c(C)c2)cc1 | inactive: > 100 µM
Cc1ccc(NC(=O)CC2Sc3ccccc3NC2=O)c(C)c1 (stereo not drawn) | inactive: 17.9 µM
CC(C)CNC(=O)O | inactive: > 100 µM
O=C(O)CCNCC(=O)O | inactive: > 100 µM
CC1=NN(C(=O)Cc2ccccc2)C(=O)/C1=C\c1ccc(O)cc1 | inactive: > 100 µM
O=C1C[C@@H]2[C@@H](CCC23CC3)N1 | inactive: > 100 µM
C[N+](C)(Cc1ccc(NC(=O)CCCC(=O)ON2C(=O)CCC2=O)cc1)c1ccccc1 | active: < 0.01 µM
COC(=O)C1(O)c2ccccc2N=C2C1CCN2C (stereo not drawn) | inactive: > 100 µM
CC1=CCN(c2ccccn2)OC1c1ccccc1 (stereo not drawn) | inactive: > 100 µM
Cc1ccc([N+](=O)[O-])cc1NC(=O)/C(CC(=O)c1sc(C(N)=S)nc1C)=N\N | inactive: > 100 µM
COC(=O)C(CC(=O)Nc1ccc(Cl)c(Cl)c1)C(=O)C(=O)NC1C2CC3CC(C2)CC1C3 (stereo not drawn) | inactive: > 100 µM
CCOc1cc2c(cc1O)CC[C@@H]1[C@@H]2CC[C@]2(C)C(OS(=O)OC3CC[C@@H]4[C@H]5CCc6cc(O)c(OCC)cc6[C@@H]5CC[C@@]34C)CC[C@@H]12 (stereo partly drawn) | inactive: 1.83 µM
CCN1C(c2ccccc2)=CC(c2ccccc2)(C(Cl)(Cl)Cl)C=C1c1ccccc1 | inactive: 33.2 µM
C[C@H](N)C(=O)Nc1ccc(-c2nc3ccccc3s2)cc1 | inactive: 21.6 µM
N#Cc1c(O)n(-c2ccccc2)c(=O)c2c(N)n[nH]c12 | inactive: > 100 µM
COC(=O)[C@@H]1CSC(=S)N1C(=O)C[C@H]1CC=CC[C@H]1CC(=O)Sc1ccccc1 | inactive: 23.6 µM
Cn1c(=O)c2c(nc(NCCCCl)n2CC(=O)NCCCCl)n(C)c1=O | inactive: > 100 µM
O=c1c2cc(S(=O)(=O)O)ccc2nc(COc2ccc(Oc3ccc(Cl)cc3Cl)cc2)n1C(=S)Nc1ccc(Cl)cc1 | inactive: 33.4 µM
c1cc2n(n1)CCN2 | inactive: 4910 µM

Structure (SMILES) | GI50
CC(=O)CCC1(C(=O)OCC(C)C)CCCC1=O (stereo not drawn) | inactive: > 100 µM
Cn1c(=O)c(C(=O)NC(=O)NCCCCCOC(=O)CCCCCCCCCCC(=O)OCCCCCNC(=O)NC(=O)c2cn(Cc3ccccc3)c(=O)n(C)c2=O)cn(Cc2ccccc2)c1=O | inactive: > 100 µM
O=C1NN(Cc2ccccc2)C(=O)N2CCC[C@@H]12 | inactive: > 100 µM
COc1ccc(-c2c(/C=N/OCC(=O)O)c3sc4ccccc4n3c2/C=N/OCC(=O)O)cc1 | inactive: > 50 µM
COc1ccc2c(c1)c(=O)c1c(NCCNCCO)ccc3c(=O)n(CCN(C)C)c(=O)n2c31 | active: 0.0164 µM
CNc1ncnc2c1cnn2Cc1cn(CCCCO)nn1 | inactive: > 100 µM
Cc1c(Cl)ccc2c1NC(=O)C2(O)C(C(=O)c1ccccc1)c1ccccc1 (stereo not drawn) | inactive: > 100 µM
CCOc1cc(NC(C)=O)ccc1C(=O)NN1C(=O)C(Cl)C1c1ccco1 (stereo not drawn) | inactive: 16.6 µM
C[Si](C)(C)C(CCCCSc1ccccc1)(Sc1ccccc1)Sc1ccccc1 | inactive: > 100 µM
CSCCCS/C1=C/CCCCCCCCCC1 | inactive: > 100 µM
CC(C)=C1CCC(CN2CCOCC2)C1=O (stereo not drawn) | inactive: 33.4 µM
CC(C)CC(NC=O)C(=O)NC(Cc1ccccc1)NC(=O)CNC(=O)C(C)NC(=O)OC(C)(C)C (stereo not drawn) | inactive: > 100 µM
CC(=O)OCC1=C(COC(C)=O)C(=O)c2c(O)ccc(O)c2C1=O | inactive: 16 µM
N#Cc1ncc(C(Cl)Cl)nc1Cl | inactive: 3.69 µM
C=C(C)[C@@H]1CCC2=C[C@@H](OC2=O)[C@@H](C(=C)C)C2=CC(C(=O)O)=C(C1)O2 | inactive: 93.3 µM
CC(=O)C1=C(C)Cn2c(=O)c3ccccc3c(=O)n2C1 | inactive: > 100 µM
O=c1c2cc(Br)ccc2nc(-c2ccccc2)n1NCC1(O)OCC(O)C(O)C1O (stereo not drawn) | inactive: > 100 µM
C/C=C(/CCC1NCCC2c3ccccc3NC12)[Si](C)(C)C (stereo not drawn) | inactive: 11.1 µM
COC(=O)/C(=C\c1ccc(N(CCC#N)CCC#N)cc1)NC(=O)c1cc([N+](=O)[O-])ccc1Cl | inactive: > 100 µM
CCN(CC)CC(C)(C)C(=O)/C=C/c1cccc(/C=C/C(=O)C(C)(C)CN(CC)CC)c1 | inactive: 1.47 µM
[N-]=[N+]=CC(=O)OCC1NC(=O)C(COC(=O)C=[N+]=[N-])NC1=O (stereo not drawn) | inactive: > 100 µM
COc1cc(C(=O)n2c3ccc(Br)cc3c3nc4ccccc4nc32)cc(OC)c1OC | inactive: > 100 µM

Structure (SMILES) | GI50
C=C1c2ccccc2N(S(=O)(=O)c2ccc(C)cc2)C12CCCCC2 | inactive: > 100 µM
CC(C)C1OC(=O)/C=C/C=C/C=C/C=C/C=C/CC(O)CC(O)CC(O)CC(O)CC(O)CC(O)CC(O)CC(O)/C=C/C1C (stereo not drawn) | inactive: > 100 µM
CN(C)NC1=NS(=O)(=O)c2cc3c(=O)n(C)[nH]c3cc2S1 | inactive: > 10 µM
C=CCn1c(=O)c(C(=O)NC(=O)OCC)cn(C2CCCCC2)c1=O | inactive: > 100 µM
CC(=O)Oc1ccn2nc(C)c(Cc3c(C)nn4ccc(OC(C)=O)cc34)c2c1 | inactive: > 100 µM
CC(CCCOC(c1ccccc1)(c1ccccc1)c1ccccc1)OC(=O)Nc1cc([N+](=O)[O-])cc([N+](=O)[O-])c1 (stereo not drawn) | inactive: 37 µM
CN(C)c1ccc(C(C#N)N2CCCN(C(C#N)c3ccc(N(C)C)cc3)C2c2ccc(N(C)C)cc2)cc1 (stereo not drawn) | inactive: > 100 µM
O=C1c2cccc3cccc(c23)C(=O)N1CCCNOCCONCCCN1C(=O)c2cccc3cccc(c23)C1=O | inactive: 33.5 µM
CCOC(=O)Cn1c(=O)n(C)c(=O)c2[nH]cnc21 | inactive: > 100 µM
CN(C)NC1=C([N+](=O)[O-])C=NN(c2ccccc2)C1 | inactive: 4.04 µM
Cc1cc(Cl)ccc1NC1=NC(=O)C(CC(=O)Nc2ccc([N+](=O)[O-])cc2[N+](=O)[O-])S1 (stereo not drawn) | inactive: 36.3 µM
COC(=O)c1csc(-c2csc(CCNC(=O)OC(C)(C)C)n2)n1 | inactive: > 100 µM
O=C1C(Br)=CC2(C=C1Br)CCNC1=C2C(=O)c2ccccc2C1=O | inactive: 35.2 µM
O=C1/C(=C/c2ccccc2[N+](=O)[O-])N=C(c2ccccc2)N1c1nc2ccccc2s1 | inactive: 37.4 µM
COc1cc(OC)cc(OCc2ccc3nc(-c4ccccc4)c(Cl)nc3c2)c1 | inactive: 86.9 µM
NNC(=O)Cn1ccnn1 | inactive: > 100 µM
COc1cc(C2C(C(=O)O)=C(COC(C)=O)Oc3cc4c(cc32)OCO4)cc(OC)c1OC(C)=O (stereo not drawn) | inactive: > 100 µM
Cc1ccc(/N=N/c2cc(=O)[nH]c(=O)[nH]2)cc1C | inactive: 17 µM
CC(=O)CC1(OC(=O)C2C(C=C(C)C)C2(C)C)C(=O)Nc2ccccc21 (stereo not drawn) | inactive: > 100 µM
COc1cc(C(=O)/C=C/c2ccc(OCCSCCCCCCCCCCSCCOc3ccc(/C=C/C(=O)c4cc(OC)c(OC)c(OC)c4)cc3)cc2)cc(OC)c1OC | inactive: > 100 µM
CCOc1cc2c(=O)oc3c(OC)ccc4ccc(c1OC)c2c43 | inactive: 38.5 µM
CSc1ncc2c(n1)-c1ccccc1OC2N1CCOCC1 (stereo not drawn) | inactive: > 100 µM

Structure (SMILES) | GI50
CC(C)(C)OC1=C(OC(C)(C)C)C(O)(c2ccc(Cl)cc2)C1=O (stereo not drawn) | inactive: > 100 µM
Cc1ccc(C)c(NC(=O)CC/C(=N\NC(=O)C(=O)NN)C(C)C(=O)c2ccc(O)cc2)c1 (stereo not drawn) | inactive: > 100 µM
O=C1Nc2ccccc2C(=O)/C1=C/NC(=S)NCc1ccccc1 | inactive: > 100 µM
C[C@@]12[C@H]3CC[C@@H]1[C@H](O)C(=O)N2CC3 | inactive: > 100 µM
COc1cc(-c2coc3c(OC)c(OC4OC(COC5OC(C)C(O)C(O)C5O)C(O)C(O)C4O)c(OC)c(O)c3c2=O)cc(C)c1O (stereo not drawn) | inactive: 15.1 µM
O=C(O)c1cccc(/C=C/c2ccccc2)c1 | inactive: > 100 µM
CC12CCC(C(=O)OC1=O)C(C)(C)O2 (stereo not drawn) | inactive: > 100 µM
CSc1nc(NC2CC2)c2c(n1)Sc1nc3ccccc3n1N=C2 | inactive: 11.7 µM
CCN(CC)c1ccc2cc(C(=O)Nc3ccccc3)c(=N)oc2c1 | inactive: > 100 µM
COc1cc(OC)cc(-n2c(N)c(-c3nc4ccccc4s3)c3ccc([N+](=O)[O-])cc3c2=O)c1 | inactive: 92 µM
Cc1nn(-c2ccccc2)c2nc(S)cnc12 | inactive: > 100 µM
O=C([O-])C(O)C(O)C(O)C(O)C(=O)O.[K+] (stereo not drawn) | inactive: > 100 µM
CC(=O)OCC1=CC2CCC3C(C)(CCC[C@]3(C)COC(C)=O)C23CC[C@H]1C3 (stereo partly drawn) | inactive: > 100 µM
O=C1C2[C@@H](C(=O)N1c1ccc(Br)cc1)C13C(=CC2([N+](=O)[O-])[C@@H]2C(=O)N(c4ccc(Br)cc4)C(=O)[C@@H]21)c1ccccc1N3c1ccccc1 (stereo partly drawn) | inactive: > 100 µM
CCCCCCCCCCCCCCCC(=O)NC1CCc2cc(O)c(O)c(O)c2-c2ccc(SC)c(=O)cc21 (stereo not drawn) | inactive: 13.7 µM
CC1/C=C/[C@@]2(C)CCC(C(C)(C)O)C2C(O)C[C@](C)(O)/C=C/C1 (stereo partly drawn) | inactive: > 100 µM
C=C[C@]1(C)CCC2=C(CCC3C2(C)CCC[C@]3(C)CO)C1 (stereo partly drawn) | inactive: > 100 µM
CCC(=O)OC1CCn2c1nc1c2C(=O)C(C)=C(NC(C)=O)C1=O (stereo not drawn) | inactive: 6.19 µM
CCCCCCCCCCCCc1ccc(S(=O)(=O)O)cc1 | inactive: > 100 µM
O=C1OC(C2OC(=O)c3cc(O)c(O)c(O)c3-c3c(O)c(O)c4oc(=O)c5c(c(O)c(O)c6oc(=O)c3c4c65)-c3c(cc(O)c(O)c3O)C(=O)OCC2O)C2OC(=O)c3c(c(O)c(O)c(O)c3[C@H]2O)-c2c1cc(O)c(O)c2O (stereo partly drawn) | inactive: 16.5 µM
O=C1c2ccccc2-c2cc([N+](=O)[O-])c([N+](=O)[O-])cc21 | inactive: 9.77 µM
O=S(=O)(N/C(=N\O)Nc1ccc(Cl)cc1)c1cc(C(F)(F)F)cc(C(F)(F)F)c1 | inactive: 18.9 µM

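48-hour exposure; five concentrations; linearly interpolated endpoints. GI50: concentration for 50% inhibition of growth.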 Calls of active or inactive are those of the source. No stated cut-off is given here; in the data, active = GI50 up to about 1.1 µM and inactive = higher.
